# Reference: the antibiotic and cytotoxicity screens of Wong et al. (2023)
# The list shows a part of the results.
# System: HSkMC (human skeletal muscle cells)
# Assay: cytotoxicity call (relative viability < 0.9)
# Settings: 10 µM
row,Compound,cytotoxicity call
1,CC(C)NC(=O)N(C)C[C@H]1Oc2ccc(NC(=O)c3ccncc3)cc2CC(=O)N([C@@H](C)CO)C[C@@H]1C,inactive
2,C[C@H]1CCCCO[C@@H](CN(C)Cc2ccc3c(c2)OCO3)[C@@H](C)CN([C@@H](C)CO)C(=O)c2cc(NC(=O)Nc3ccc(C(F)(F)F)cc3)ccc2O1,active
3,C[C@H](CO)N1C[C@H](C)[C@H](CN(C)C(=O)Nc2cc(F)ccc2F)Oc2ncc(C#CCN(C)C)cc2C1=O,inactive
4,C[C@@H]1CCCCO[C@@H](CN(C)Cc2ccc(C(F)(F)F)cc2)[C@H](C)CN([C@@H](C)CO)C(=O)c2cc(NC(=O)Nc3cccc4ccccc34)ccc2O1,inactive
5,CNC[C@@H]1Oc2ccc(NS(=O)(=O)c3cn(C)cn3)cc2CC(=O)N([C@@H](C)CO)C[C@@H]1C,inactive
6,C[C@H](O)C1=C[C@]2(CC[C@@H]3C(C(=O)O)=CO[C@@H](O[C@@H]4O[C@H](CO)[C@@H](O)[C@H](O)[C@H]4O)[C@@H]32)OC1=O,inactive
7,COc1ccccc1C#Cc1ccc2c(c1)O[C@@H](CN(C)Cc1cncnc1)[C@@H](C)CN([C@H](C)CO)S2(=O)=O,inactive
8,COc1ccc(S(=O)(=O)Nc2ccc3c(c2)C(=O)N([C@H](C)CO)C[C@H](C)[C@H](CN(C)Cc2ccc(C(=O)O)cc2)OCCCC[C@H](C)O3)cc1,inactive
9,CCNc1nc(NCC)nc(OCC#N)n1,inactive
10,CC(=O)OCC[N+](C)(C)C.[Cl-],inactive
11,COc1ccc(C(C)=O)c(O)c1,inactive
12,Cc1ccc(S(=O)(=O)Nc2ccc3c(c2)C(=O)N([C@H](C)CO)C[C@H](C)[C@H](CN(C)Cc2ccc4c(c2)OCO4)OCCCC[C@H](C)O3)cc1,inactive
